According to the supplement of paper PMC4604168 (melanoma cell lines):
This is one part of the list. Repeats are few or missing, and single values can be far off.

Each molecule was assayed on WM3526 (assay: cell count relative to DMSO control; melanoma cells; higher = more viable cells). Conditions: library dose: standard library concentration; 72 h.
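Also: cells treated in 1,536-well plates, then fixed and DAPI-stained, with nuclei counted from automated high-throughput microscope images.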

SMILES | cell count
CC1(C)CCC(c2ccc(Cl)cc2)=C(CN2CCN(c3ccc(C(=O)NS(=O)(=O)c4ccc(N[C@H](CCN5CCOCC5)CSc5ccccc5)c(S(=O)(=O)C(F)(F)F)c4)cc3)CC2)C1 + COc1cc2ncnc(Nc3ccc(Oc4ccccc4)cc3)c2cc1OC [SrcI1] (first compound 2 µM, partner dose 10 µM) | 53.4%
O=C(/C=C/c1cccnc1)NCCCCC1CCN(C(=O)c2ccccc2)CC1 + N#Cc1c(O)c2c(-c3ccc(-c4ccccc4O)cc3)csc2[nH]c1=O [A769662] (first compound 0.05 µM, partner dose 10 µM) | 85.6%
CC1(C)CCC(c2ccc(Cl)cc2)=C(CN2CCN(c3ccc(C(=O)NS(=O)(=O)c4ccc(N[C@H](CCN5CCOCC5)CSc5ccccc5)c(S(=O)(=O)C(F)(F)F)c4)cc3)CC2)C1 + CCCCCCCCc1ccc(CCC(N)(CO)CO)cc1 [fingolimod] (first compound 2 µM, partner dose 10 µM) | 15.2%
CC1(C)CCC(c2ccc(Cl)cc2)=C(CN2CCN(c3ccc(C(=O)NS(=O)(=O)c4ccc(N[C@H](CCN5CCOCC5)CSc5ccccc5)c(S(=O)(=O)C(F)(F)F)c4)cc3)CC2)C1 + O=S(=O)(c1ccccc1)N(CC(F)(F)F)c1ccc(C(O)(C(F)(F)F)C(F)(F)F)cc1 [T0901317] (first compound 2 µM, partner dose 7 µM) | 77.1%
O=C(/C=C/c1cccnc1)NCCCCC1CCN(C(=O)c2ccccc2)CC1 + CC(C)CCN1c2nc(Nc3cc(F)c(O)c(F)c3)ncc2N(C)C(=O)C1C [BID1870] (first compound 0.05 µM, partner dose 1 µM) | 74.9%
